{
  "source": "the RNAGym collection of RNA variant scans (doi:10.1093/nar/gkz1192)",
  "parents": {"B1": {"name": "CPEB3 Ribozyme (parent)", "chain": "UAACAGGGGGCCACAGCAGAAGCGUUCACGUCGCAGCCCCUGUCAGAUUCUGGUGAAUCUGCGAAUUCUGCUGUAUAUCUC"}},
  "note": "Read counts are not given, so values of variants with three or more changes are uncertain.",
  "data": [
    {"variants_of": "B1", "test": "self-cleavage, relative activity (ratio to wild type); higher = more cleavage; in vitro, sequencing", "how_it_was_run": "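Relative activity compares each variant's cleaved/total read fraction with that of the unmutated ribozyme. To get these fractions, barcoded CPEB3 ribozyme libraries from rounds of error-prone PCR were transcribed with T7 RNA polymerase for 5 hours at 37°C and then given 15 min of DNase I treatment before EDTA was added. The RNAs were reverse transcribed with template switching and sequenced on Illumina, and DNA sequencing linked barcodes to variants. A minimum of 5 reads applied, and three batches were averaged.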", "values": [
      {"variant": "A20G U43C A64U", "self-cleavage": 0.2},
      {"variant": "A20G U51G A56G", "self-cleavage": 0.45},
      {"variant": "A20G U43C C50A", "self-cleavage": 0.25},
      {"variant": "A20G U26A U66C G73A A77G", "self-cleavage": 0.46},
      {"variant": "A20G U26C U80C", "self-cleavage": 0.43},
      {"variant": "A20U C50A U72A U80C", "self-cleavage": 0.58},
      {"variant": "A20G U31A A47U", "self-cleavage": 0.37},
      {"variant": "A20G U25C A35U A77G", "self-cleavage": 0.13},
      {"variant": "A20U G24U U60C", "self-cleavage": 0.1},
      {"variant": "A20G U31C U43G U67C U78C", "self-cleavage": 0.09},
      {"variant": "A20U A28G U41A A75U", "self-cleavage": 0.12},
      {"variant": "A20U A35G C38A U41G C71A", "self-cleavage": 0.15},
      {"variant": "A20U A35G U43C U48C G55C", "self-cleavage": 0.16},
      {"variant": "A20G U26A U31C U49C U66C", "self-cleavage": 0.07},
      {"variant": "A20G U49A U72C", "self-cleavage": 0.28},
      {"variant": "A20G U48C U60C A64G U66G U72C", "self-cleavage": 0.16},
      {"variant": "A20G U25G U31C U49C A56G", "self-cleavage": 0.4},
      {"variant": "A20U A28G U31A A65G U72A", "self-cleavage": 0.05},
      {"variant": "A20G U25C U58C", "self-cleavage": 0.18},
      {"variant": "A20U A28C U43C", "self-cleavage": 0.22},
      {"variant": "A20G G61A G63C A64G", "self-cleavage": 0.29},
      {"variant": "A20G U51G U67C U76C", "self-cleavage": 1.19},
      {"variant": "A20G U58A C68U A77G", "self-cleavage": 0.1},
      {"variant": "A20U A47U G63A U80C", "self-cleavage": 0.19},
      {"variant": "A20G U54A U72C", "self-cleavage": 0.99},
      {"variant": "A20G U25C A35C A47G U51A", "self-cleavage": 0.11},
      {"variant": "A20G U54A U78C", "self-cleavage": 0.62},
      {"variant": "A20G U25C A57G U76C", "self-cleavage": 0.36},
      {"variant": "A20U A21C A64G U67C", "self-cleavage": 0.17},
      {"variant": "A20G U41C A45G G52A U58C U72C", "self-cleavage": 0.3},
      {"variant": "A20G U49C A65U U69C", "self-cleavage": 0.12},
      {"variant": "A20G U49A U66C", "self-cleavage": 0.21},
      {"variant": "A20G U58C U67A", "self-cleavage": 0.12},
      {"variant": "A20G U26A G33A U48A U72C", "self-cleavage": 0.06},
      {"variant": "A20G U49C A56G A65G U80C", "self-cleavage": 0.31},
      {"variant": "A20G U25C U67C C71A", "self-cleavage": 0.03},
      {"variant": "A20G U69A U74C", "self-cleavage": 0.55},
      {"variant": "A20G U43A A56U A75U", "self-cleavage": 0.41},
      {"variant": "A20G U31C C32U", "self-cleavage": 0.06},
      {"variant": "A20G U41G U69C A77G U80C", "self-cleavage": 0.09},
      {"variant": "A20G U41A A45U U66C U69A U72C", "self-cleavage": 0.07},
      {"variant": "A20U A28G A35G C40A U41A A47G", "self-cleavage": 0.08},
      {"variant": "A20U A35U A57G C79A", "self-cleavage": 0.12},
      {"variant": "A20G U25C C29U U78C", "self-cleavage": 0.24},
      {"variant": "A20U C39A U49A", "self-cleavage": 0.12},
      {"variant": "A20G U43C G63A U66C U72G", "self-cleavage": 0.12},
      {"variant": "A20G U31A U48A U51C U60C", "self-cleavage": 0.13},
      {"variant": "A20G U26G A45G U60C", "self-cleavage": 0.25},
      {"variant": "A20G U41C U51C U60C U72A", "self-cleavage": 0.26},
      {"variant": "A20G U25A A28U U43C", "self-cleavage": 0.4},
      {"variant": "A20U A45U U74A", "self-cleavage": 0.13},
      {"variant": "A20G U31C A65C U74A", "self-cleavage": 0.15},
      {"variant": "A20G U26C A64G", "self-cleavage": 0.31},
      {"variant": "A20G U25A U54G A65G U80A", "self-cleavage": 0.07},
      {"variant": "A20G U80C C81A", "self-cleavage": 1.03},
      {"variant": "A20G U51A A57U U80C", "self-cleavage": 0.39},
      {"variant": "A20G G61A U67A C68A", "self-cleavage": 0.1},
      {"variant": "A20G U26G C32A A45U U51C C68U U80C", "self-cleavage": 0.13},
      {"variant": "A20G U41C U43C A56G", "self-cleavage": 0.27},
      {"variant": "A20U A28G U49A G52U U66C G73U A77U", "self-cleavage": 0.07},
      {"variant": "A20U G30A A64G U69G", "self-cleavage": 0.1},
      {"variant": "A20U C34U U51A U67C", "self-cleavage": 0.12},
      {"variant": "A20G U43C A45G U80C", "self-cleavage": 0.41},
      {"variant": "A20G U49A A56G A64U U74C", "self-cleavage": 0.13},
      {"variant": "A20G U43C A45U G61A", "self-cleavage": 0.26},
      {"variant": "A20U A35G U66A U72A", "self-cleavage": 0.64},
      {"variant": "A20G U54C U74C", "self-cleavage": 1.23},
      {"variant": "A20G U58C A64U A65G", "self-cleavage": 0.1},
      {"variant": "A20U C40U U41A A47G", "self-cleavage": 0.19},
      {"variant": "A20G U43A A45G A77G", "self-cleavage": 0.87},
      {"variant": "A20G U58C U60C U76A", "self-cleavage": 0.08},
      {"variant": "A20G U43C A77G", "self-cleavage": 0.47},
      {"variant": "A20G U31C A35G U43A", "self-cleavage": 0.48},
      {"variant": "A20U A21U G30A A77U", "self-cleavage": 0.15},
      {"variant": "A20U A21G U60A", "self-cleavage": 0.12},
      {"variant": "A20U A35G C38U", "self-cleavage": 0.63},
      {"variant": "A20U C50U A57C U72C", "self-cleavage": 0.09},
      {"variant": "A20G G61A U78C", "self-cleavage": 0.32},
      {"variant": "A20U A28U U48A", "self-cleavage": 0.07},
      {"variant": "A20G U25G U26A U58C G61A A65G U67C", "self-cleavage": 0.03},
      {"variant": "A20U A21G G42A", "self-cleavage": 0.53},
      {"variant": "A20G U25C U41A", "self-cleavage": 0.42},
      {"variant": "A20G U43C U54C U58A U78C", "self-cleavage": 0.21}
    ]}
  ]
}
